Kd data for one molecule are collected here from paper PMC11861601, “Multitarget mechanism of MYC inhibition by the bacterial lon protease in disease” (Scientific Reports, 2025).

The target in the assay is T1, Lon N-terminal domain peptide (aa 1-245) (E. coli, UniProt P0A9M0 1-245).
T1 construct: Lon protease, E. coli, UniProt P0A9M0, N-terminal domain, aa 1-245; also called NTD; NTD peptide; source: E. coli BL21 (DE3), purified (Strep-Tactin Sepharose)
The assay is described as follows: SPR; Biacore X100; His-tagged ligand (~0.2 µM) captured on Ni-charged Sensor Chip NTA; Lon protein or domain injected at five dilutions; 25 °C, 30 µL/min; running buffer as printed 0.1 M HEPES, 1.5 M NaCl, 0.03 M EDTA, 0.5% v/v Surfactant P20; reference cell without nickel; 1:1 Langmuir fit. To be noted: both partners purified.

B1: His-tagged MAX (natural protein)
chain: not shown
notes: MAX, human; source: bought: Novus Biologicals, Cat# NBP1-44497
B1 displayed a Kd of under 1000 nM.
